The values below come from paper PMC6919601, “Identification of Plasmodium dipeptidyl aminopeptidase allosteric inhibitors by high throughput screening” (PLoS ONE, 2019).

Screen size: about 110,000 compounds; about 230 (0.21%) showed an effect of 50% or more. The list shows a part of the results.
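Further: 30 min substrate incubation versus DMSO and 10 µM JCP410 controls.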

This test deals with DPAP1 (Plasmodium falciparum, UniProt Q8IIJ9). As to the kind of experiment: primary screen, percent inhibition; read by cleavage of a fluorogenic dipeptide substrate; higher = more effect of the substance. Further details: species or system P. falciparum D10 trophozoite lysates; single well.
DPAP1, sequence (Q8IIJ9 whole entry, looked up): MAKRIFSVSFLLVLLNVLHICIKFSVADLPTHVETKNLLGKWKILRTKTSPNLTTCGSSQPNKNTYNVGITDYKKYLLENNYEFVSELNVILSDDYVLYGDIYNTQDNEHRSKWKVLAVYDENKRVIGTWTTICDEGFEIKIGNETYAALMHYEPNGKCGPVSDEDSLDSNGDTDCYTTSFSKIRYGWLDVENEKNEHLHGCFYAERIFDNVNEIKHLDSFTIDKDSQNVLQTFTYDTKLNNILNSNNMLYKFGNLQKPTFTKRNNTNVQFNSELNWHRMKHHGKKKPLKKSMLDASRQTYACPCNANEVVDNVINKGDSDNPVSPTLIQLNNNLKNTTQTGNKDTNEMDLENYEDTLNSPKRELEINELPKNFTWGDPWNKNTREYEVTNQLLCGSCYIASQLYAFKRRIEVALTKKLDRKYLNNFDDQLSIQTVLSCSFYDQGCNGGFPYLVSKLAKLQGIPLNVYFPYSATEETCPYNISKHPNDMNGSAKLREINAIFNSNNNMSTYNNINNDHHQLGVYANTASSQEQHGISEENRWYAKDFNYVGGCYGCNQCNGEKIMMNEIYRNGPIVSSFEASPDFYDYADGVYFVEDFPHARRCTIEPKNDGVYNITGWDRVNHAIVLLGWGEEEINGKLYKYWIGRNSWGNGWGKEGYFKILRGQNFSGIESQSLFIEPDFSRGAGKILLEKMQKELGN
Turning to `Oc1nc(SC(c2ccccc2)c2ccccc2)nc(O)c1Cc1ccccc1`, the “% Inhibition @ 10 uM” value is 4.6%.

As for `CCCCOc1ccc(C(=O)NCC2COc3ccccc3O2)cc1` (stereo not drawn), the “% Inhibition @ 10 uM” value is reported as -6.3%.

Turning to `O=C(NCc1cccs1)C1CCN(c2cnccn2)CC1`, the “% Inhibition @ 10 uM” value stood at 4%.

On to `CC(=O)c1ccc(NC(=O)C2CC(=O)N(c3ccccc3)C2)cc1` (stereo not drawn), for which the “% Inhibition @ 10 uM” value is 3.53%.

As for `NC(=O)c1c(NC(=O)C23CC4CC(CC(C4)C2)C3)sc2c1CCCCC2`, the “% Inhibition @ 10 uM” value was determined as 52.3%.

Regarding `O=C(c1cccnc1)N1CCNCC1`, the “% Inhibition @ 10 uM” value is reported as -6.7%.

As to `CCCCN(CCCC)C(=O)c1ccc(CNS(=O)(=O)c2ccc(OC)cc2)cc1`, the “% Inhibition @ 10 uM” value is -3.35%.

With `O=[N+]([O-])c1ccccc1CN1CCCCCCC1`, the “% Inhibition @ 10 uM” value is given as -3.65%.

In the case of `CCOC(=O)c1ccc2nc(NC3(C(F)(F)F)C(=O)NC(C)=C3C#N)sc2c1` (stereo not drawn), the “% Inhibition @ 10 uM” value is given as -5.96%.

With `CC(=O)c1cc(-c2ccc(F)cc2)n(CCC(=O)NC2CCCCC2C)c1C` (stereo not drawn), the “% Inhibition @ 10 uM” value turned out to be 1.47%.

Turning to `CCOC(=O)C1CCCCN1Cc1ccc(Cl)cc1` (stereo not drawn), the “% Inhibition @ 10 uM” value was -0.127%.

Turning to `Fc1ccccc1N1CCN(Cc2cc(Br)cs2)CC1`, the “% Inhibition @ 10 uM” value is recorded as -0.127%.

On to `N#Cc1c(NC(=O)/C=C/C(=O)O)sc2c1CCCC2`, for which the “% Inhibition @ 10 uM” value is given as -2.72%.

Turning to `O=C(CN(C1CCCCC1)S(=O)(=O)c1ccc(Cl)cc1)N1CCN(Cc2ccccc2)CC1`, the “% Inhibition @ 10 uM” value is -8.67%.

`O=C(Nc1cc(Cl)cc(Cl)c1)Nc1ccc(Cl)c(Cl)c1`: the “% Inhibition @ 10 uM” value is -2.02%.

For `Cc1nc(-c2ccc(S(=O)(=O)N3CCOCC3)cc2)cs1`, the “% Inhibition @ 10 uM” value is recorded as 2.76%.

Take `COc1ccc(NC(=O)c2ccc(C)cc2)c(OC)c1`: the “% Inhibition @ 10 uM” value is given as -3.44%.

Consider `CCOc1ccccc1CNC(=O)c1cc2cccc3c2n1CCS3`, for which the “% Inhibition @ 10 uM” value is on record as -0.0668%.

Take `O=C(c1ccc(CS(=O)(=O)c2c(Cl)cccc2Cl)o1)N1CCN(Cc2ccccc2)CC1`: the “% Inhibition @ 10 uM” value is reported as -6.89%.

For the compound `CCCc1[nH]nc2c1C(c1ccc(OC(C)C)c(OC)c1)C(C#N)=C(N)O2` (stereo not drawn), the “% Inhibition @ 10 uM” value came to 6.42%.

In the case of `Cc1ccc(OCc2nc(-c3ccc(C(F)(F)F)cc3)no2)cc1C`, the “% Inhibition @ 10 uM” value is recorded as -0.671%.

With `Nc1ccccc1-c1nc2ccccc2c2nc3ccccc3n12`, the “% Inhibition @ 10 uM” value is reported as -4.58%.

For `N#Cc1ccc(Oc2ccc(NC(=O)C3CC=CCC3C(=O)O)cc2)cc1` (stereo not drawn), the “% Inhibition @ 10 uM” value is recorded as -3.83%.

As to `Cc1ccc(S(=O)(=O)Oc2ccccc2C=C2C(=O)N(C)C(=O)N(C)C2=O)cc1`, the “% Inhibition @ 10 uM” value is recorded as -1.93%.

For the compound `CCOC(=O)c1c(C)[nH]c2ccc(OC)cc12`, the “% Inhibition @ 10 uM” value is -9.45%.

In the case of `O=C(NC1CCCCC1)c1cccnc1C(=O)O`, the “% Inhibition @ 10 uM” value is -1.08%.

Regarding `CC1CC(Nc2ccccc2)c2ccccc2N1C(=O)/C=C/c1ccccc1` (stereo not drawn), the “% Inhibition @ 10 uM” value is given as -0.569%.

Take `Cc1ccc(N2C(=O)CC(N3CCCCC3C)C2=O)cc1` (stereo not drawn): the “% Inhibition @ 10 uM” value is listed as -6.36%.

As to `Cc1ccc(CNC(=O)C(Cc2ccccc2)NS(=O)(=O)c2cccc3nsnc23)cc1` (stereo not drawn), the “% Inhibition @ 10 uM” value was -1.43%.

`Cc1ccc(S(=O)(=O)NCCC(=O)NC(C)c2ccccc2)cc1` (stereo not drawn): the “% Inhibition @ 10 uM” value is on record as -5.8%.

As for `Cc1ccc(S(=O)(=O)N(C)c2ccc(C(=O)NCc3ccccn3)cc2)cc1`, the “% Inhibition @ 10 uM” value was -3.33%.

Consider `COc1ccc(Oc2ccc3[nH]c4c(c3c2)CCCC4=O)cc1`, for which the “% Inhibition @ 10 uM” value was 3.05%.

As to `CC1(C)Cc2ccccc2-c2nc(S)nc(O)c21`, the “% Inhibition @ 10 uM” value is -4.35%.

Take `CCC(=C1C(=O)CCCC1=O)N1CCCC1`: the “% Inhibition @ 10 uM” value is on record as -2.24%.

`C=CCNC(=O)c1ccccc1NS(=O)(=O)c1ccc(NC(C)=O)cc1`: the “% Inhibition @ 10 uM” value was 3.35%.

Consider `CCC(C)c1ccccc1OCC(=O)Nc1sc2c(c1C(N)=O)CCCC2` (stereo not drawn), for which the “% Inhibition @ 10 uM” value is -3.72%.

For the compound `CCn1cc2nc(SC)n(Cc3ccc(C)cc3)c(=O)c2n1`, the “% Inhibition @ 10 uM” value was -6.08%.

As to `O=c1c2c(-c3ccc(Cl)cc3)csc2nc2c3ccccc3c(N3CCN(CCO)CC3)nn12`, the “% Inhibition @ 10 uM” value is given as -7.14%.

Turning to `O=C(Nc1cccnc1)c1cc(-c2ccco2)on1`, the “% Inhibition @ 10 uM” value was 0.0221%.

As to `CC(CCc1ccccc1)NC(=O)c1cc(-c2ccccc2)[nH]n1` (stereo not drawn), the “% Inhibition @ 10 uM” value was -3.88%.

For the compound `Cc1ccc(C2=NN=C(NC(=O)CSc3nnc4c(n3)[nH]c3ccccc34)SC2)cc1`, the “% Inhibition @ 10 uM” value was 5.81%.

As to `O=C1C2C(c3ccccc3)OC3(C(=O)c4ccccc4C3=O)C2C(=O)N1Cc1ccccc1` (stereo not drawn), the “% Inhibition @ 10 uM” value is 0.35%.

`CCO/C(O)=C1\C(C)=NC2=C(C(=O)CC(c3ccc(OC)cc3)C2)C1c1ccccc1OC(C)C` (stereo not drawn): the “% Inhibition @ 10 uM” value came out at 14.5%.

For the compound `O=C(O)CCCc1ccc2ccc3cccc4ccc1c2c34`, the “% Inhibition @ 10 uM” value was 8.97%.

With `COc1ccc(OC)c(/C=C/c2sc3ccccc3[n+]2C)c1`, the “% Inhibition @ 10 uM” value was -1.63%.

As for `O=C1CC(c2cccs2)Cc2nc(NCc3ccccc3)ncc21` (stereo not drawn), the “% Inhibition @ 10 uM” value is 1.63%.

For the compound `C=C(C)c1cccc(C(C)(C)NC(=O)N2CCCCCC2)c1`, the “% Inhibition @ 10 uM” value is listed as 4.35%.

Consider `Cc1cc(C(C)(C)C)n2ncc(-c3ccccc3)c2n1`, for which the “% Inhibition @ 10 uM” value stood at 1.86%.

With `COc1cc(C)ccc1S(=O)(=O)N1CCCCCC1`, the “% Inhibition @ 10 uM” value was 0.503%.

On to `COc1ccc(CNCc2c(C(=O)O)n(Cc3ccccc3F)c3cc(C)ccc23)c(OC)c1`, for which the “% Inhibition @ 10 uM” value is -0.537%.

Consider `Oc1nnc(Cc2ccncc2)c2ccccc12`, for which the “% Inhibition @ 10 uM” value is recorded as -4%.
